The source of these data is PubChem BioAssay AID1745853 (National Center for Advancing Translational Sciences (NCATS), 2022).

The other results are listed elsewhere or left out. The main result of the screen is listed elsewhere. These columns were measured beside it and carry no call.

What all share (experiment): Primary Screen for Target Class Profiling of Small Molecule Inhibitors of Methyltransferases
For experiment [1], the target named is Glycine N-methyltransferase (Homo sapiens) (UniProt Q14749). Conditions: purified enzyme, MTase-Glo SAH luminescence; measured here: GNMT inhibition; at 40 µM; stronger effect = lower value. In a few lines: (§1)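 Each enzyme was assayed with SAM and its substrate. SAH formation detected by MTase-Glo luminescence; single-point 40 uM screen[…].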
The target in experiment [2] is Guanidinoacetate N-methyltransferase (Homo sapiens) (UniProt Q14353). The following applies: purified enzyme, MTase-Glo SAH luminescence; measured here: GAMT inhibition; at 40 µM; stronger effect = lower value. In a few lines: as §1
The target in experiment [3] is Histamine N-methyltransferase (Homo sapiens) (UniProt P50135). Conditions: purified enzyme, MTase-Glo SAH luminescence; measured here: HNMT inhibition; at 40 µM; stronger effect = lower value. In a few lines: as §1
Experiment [4] deals with Nicotinamide N-methyltransferase (Homo sapiens) (UniProt P40261). Conditions: purified enzyme, MTase-Glo SAH luminescence; measured here: NNMT inhibition; at 40 µM; stronger effect = lower value. The procedure, abridged:
as §1

Experiment [5] addresses Phenylethanolamine N-methyltransferase (Homo sapiens) (UniProt P11086). The following applies: purified enzyme, MTase-Glo SAH luminescence; measured here: PNMT inhibition; at 40 µM; stronger effect = lower value. The procedure, abridged: as §1
% is scaled to controls: 0 for no effect and ±100 for the full control effect.

`OCCC1CCN(c2ccc(-c3nc(CCCc4ccccc4)no3)cn2)CC1`: the activity change, negative = inhibition in experiment [1] was -3.84%; in experiment [2], -7.55%; in experiment [3], -2.03%; in experiment [4], -13.3%; in experiment [5], -3.97%.

On to `O=C(c1ccc(C(F)(F)F)cc1)N1CCCC(C(=O)N2CCC(N3CCOC3=O)CC2)C1` (configuration not stated), for which the activity change, negative = inhibition in experiment [1] was -6.85%; in experiment [2], -10.3%; in experiment [3], -4.91%; in experiment [4], -17%; in experiment [5], -12.9%.

Consider `COC(=O)c1cc2n(n1)CC(C)(C(=O)NC1CCCCC1)N(c1cc(C)cc(C)c1)C2=O` (configuration not stated), for which the activity change, negative = inhibition is -1.49% in experiment [1]; 0.31% in experiment [2]; -0.102% in experiment [3]; 1.59% in experiment [4]; -0.558% in experiment [5].

As for `Cc1cc2c(cc3n2CC(C)(C(=O)NC2CCCCCC2)N(CCc2ccc(Cl)cc2)C3=O)o1` (configuration not stated), the activity change, negative = inhibition in experiment [1] came out at 7.72%; in experiment [2] it was 0%; in experiment [3], 12.6%; in experiment [4], 14.7%; in experiment [5], 6.59%.

Turning to `C[C@@H](NC(=O)C1CCCC1)c1onc(-c2cccnc2)c1C(=O)O`, the activity change, negative = inhibition in experiment [1] is -8.37%; in experiment [2], -11.4%; in experiment [3], -3.72%; in experiment [4], -17.8%; in experiment [5], -16.6%.

In the case of `CCC1c2ccc(C)n2CCN1C(=O)Nc1cc(Cl)ccc1C(=O)OC` (configuration not stated), the activity change, negative = inhibition in experiment [1] is -9.82%; in experiment [2], 0%; in experiment [3] it was -3.09%; in experiment [4], -4.38%; in experiment [5], -2.53%.

Regarding `C=C1[C@H](OC(C)=O)[C@H]2[C@@H](OC(C)=O)C(C)C[C@]2(OC(C)=O)C(=O)[C@H](C)/C=C/C(C)(C)C(=O)[C@H](OC(=O)C(C)C)[C@H]1OC(C)=O` (some centres not stated), the activity change, negative = inhibition is 0% in experiment [1]; -5.23% in experiment [2]; 1.64% in experiment [3]; -18.8% in experiment [4]; 2.43% in experiment [5].

As for `C[C@H]1CN(C[C@H](Cc2ccccc2)C(=O)NCC(=O)O)CC[C@@]1(C)c1cccc(O)c1`, the activity change, negative = inhibition in experiment [1] was -4%; in experiment [2], -5.9%; in experiment [3], 7.83%; in experiment [4] it was -19.6%; in experiment [5], -0.543%.

As for `O=C(O)C1CCc2nnc(C3CCCN([S+](=O)([O-])c4cccc(C(F)(F)F)c4)C3)n21` (configuration not stated), the activity change, negative = inhibition was -3.19% in experiment [1]; -3.38% in experiment [2]; -0.192% in experiment [3]; -6.08% in experiment [4]; -0.678% in experiment [5].

On to `CCc1ccc(NC(=O)CSc2nnc3[nH]c(=O)c(C)nn23)cc1`, for which the activity change, negative = inhibition in experiment [1] was -2.65%; in experiment [2], 6.38%; in experiment [3] it was -8.7%; in experiment [4], -13.6%; in experiment [5] it was -7.16%.

Take `Cc1cc(S(=O)(=O)NCCN2CCOCC2)ccc1Cl`: the activity change, negative = inhibition in experiment [1] is -5.62%; in experiment [2], 2.19%; in experiment [3], 0.59%; in experiment [4], 1.79%; in experiment [5], -3.76%.

For the compound `C[S+](=O)([O-])N1CCN(c2nccc(Nc3ccccc3F)n2)CC1`, the activity change, negative = inhibition in experiment [1] is -9.17%; in experiment [2] it was -7.53%; in experiment [3], -2.02%; in experiment [4] it was -14.5%; in experiment [5], -12.7%.

Regarding `CC1(C(=O)NC2CCCCCC2)Cn2c(ccc2-c2ccccc2)C(=O)N1Cc1ccccc1F` (configuration not stated), the activity change, negative = inhibition in experiment [1] was -2.24%; in experiment [2], -2.39%; in experiment [3] it was -7.06%; in experiment [4], -8.02%; in experiment [5], -5.45%.

Turning to `O=C(COc1ccccc1)N1C[C@@H]2C[C@H](C1)c1ccc(-c3cccc(C(F)(F)F)c3)c(=O)n1C2`, the activity change, negative = inhibition in experiment [1] was -7.07%; in experiment [2], -10.2%; in experiment [3], -3.78%; in experiment [4] it was -12.8%; in experiment [5], -7.05%.

As for `Cc1ccc(Cl)cc1N1CCN(S(=O)(=O)c2cc3c(cc2C)n(C)c(=O)n3C)CC1`, the activity change, negative = inhibition in experiment [1] was 8.87%; in experiment [2] it was 1.61%; in experiment [3], 10.1%; in experiment [4] it was -1.8%; in experiment [5], 5.95%.

Turning to `CCC(O)c1cc2n(n1)CCN(Cc1nccn1Cc1ccccc1)C2` (configuration not stated), the activity change, negative = inhibition in experiment [1] is -8.93%; in experiment [2], -4.35%; in experiment [3], -1.11%; in experiment [4] it was -18.1%; in experiment [5] it was -8.86%.

Regarding `CN1CCCCCCN(C(=O)c2cccn2C)[C@H]2CCC[C@H]2C1=O`, the activity change, negative = inhibition was -0.016% in experiment [1]; 0.843% in experiment [2]; -1.7% in experiment [3]; -3.19% in experiment [4]; -3.63% in experiment [5].

For `CN(C)c1cc(CC2CC(=O)N(c3ccccc3)C2)ncn1` (configuration not stated), the activity change, negative = inhibition is -7.59% in experiment [1]; -6.51% in experiment [2]; -13.3% in experiment [3]; -14% in experiment [4]; -28.5% in experiment [5].

For `CC(C)(O)c1ccc2c(c1)C(=O)C[C@H]1[C@](C)(C(=O)O)CCC[C@]21C`, the activity change, negative = inhibition was 0.514% in experiment [1]; 6.65% in experiment [2]; 11% in experiment [3]; -4.53% in experiment [4]; 7.13% in experiment [5].

`C=Cc1ccc(CSc2nnc3n(CCCOC(C)C)c(=O)c4ccccc4n23)cc1`: the activity change, negative = inhibition in experiment [1] is -5.68%; in experiment [2], 0.011%; in experiment [3], -1.34%; in experiment [4], -5.31%; in experiment [5], 2.6%.

Regarding `CC(C)=C1C[C@@]2(C)C(=CC1=O)CC[C@@H](O)[C@@H]2C`, the activity change, negative = inhibition in experiment [1] is 4.99%; in experiment [2], 1.78%; in experiment [3], 10.6%; in experiment [4], -11.2%; in experiment [5], -3.7%.

For `COc1ccc2c(OC)c3ccoc3nc2c1OC`, the activity change, negative = inhibition was -22.8% in experiment [1]; -0.985% in experiment [2]; -10.9% in experiment [3]; -15.9% in experiment [4]; -3.46% in experiment [5].

On to `COc1ccccc1-n1c(SCC(=O)Nc2nc3ccc(C)cc3s2)nc2c(c1=O)SCC2`, for which the activity change, negative = inhibition was -7.74% in experiment [1]; -17% in experiment [2]; 6.19% in experiment [3]; -28.3% in experiment [4]; -4% in experiment [5].

As for `Cn1c(=O)c2ccc(C(=O)NC3CCCCC3)cc2n2c(=O)n(Cc3ccc(N4CCCC4=O)cc3)nc12`, the activity change, negative = inhibition is 4.93% in experiment [1]; 0% in experiment [2]; 11.1% in experiment [3]; 2.97% in experiment [4]; 4.92% in experiment [5].

In the case of `CCCCC(=O)N(Cc1ccc(-c2ccccc2-c2nn[nH]n2)cc1)C(C(=O)O)C(C)C` (configuration not stated), the activity change, negative = inhibition in experiment [1] was -3.01%; in experiment [3], 9.52%.

As for `Cc1ccc(C)c(NS(=O)(=O)c2cc3[nH]c(=O)[nH]c3cc2C)c1`, the activity change, negative = inhibition is -2.35% in experiment [1]; 0% in experiment [2]; -0.071% in experiment [3]; -2.12% in experiment [4]; -3.4% in experiment [5].

Turning to `CCOC(=O)c1cc2n(n1)CC(C)(C(=O)NCc1ccc(C)cc1)N(Cc1ccc(C)cc1)C2=O` (configuration not stated), the activity change, negative = inhibition in experiment [1] was 1.07%; in experiment [2], 4.32%; in experiment [3] it was 5.23%; in experiment [4], -4.11%; in experiment [5], -0.355%.

`COc1cc(O)cc(C)c1C(=O)OC1C(CO)OC(n2ccc(=O)[nH]c2=O)C1OC(C)=O` (configuration not stated): the activity change, negative = inhibition in experiment [1] was 1.9%; in experiment [2], -1.68%; in experiment [3] it was 4.36%; in experiment [4], -14.1%; in experiment [5] it was 2.08%.

As for `Cc1ncccc1-c1nc2cc(C(=O)NCc3ccccc3F)ccc2o1`, the activity change, negative = inhibition in experiment [1] was -9.3%; in experiment [2], -5.4%; in experiment [3], -2.94%; in experiment [4], -14.8%; in experiment [5], 8.22%.

As to `CCOc1cc(CNC(=O)c2ncn3c2C(=O)N(CC)C(C)(C(=O)NC2CCCC2)C3)ccc1OC` (configuration not stated), the activity change, negative = inhibition in experiment [1] is -0.626%; in experiment [2] it was 0%; in experiment [3], 10.8%; in experiment [4], 6.28%; in experiment [5], 9.76%.
